Test results taken from paper PMC4336329 (PLoS ONE, 2015).
In all, about 310,000 compounds went through this assay and about 14,000 (4.5%) showed an effect of 50% or more. Effects have a minus sign here. This is one part of the list.
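Further: peak tail current of the secondary pulse compared with the same well before compound.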

What follows are compounds tested against human ether-à-go-go-related gene (hERG) potassium channel (human, UniProt Q12809) (assay: primary screen, population patch clamp on CHO cells stably expressing hERG).
Chain of human ether-à-go-go-related gene (hERG) potassium channel (Q12809 whole entry, looked up): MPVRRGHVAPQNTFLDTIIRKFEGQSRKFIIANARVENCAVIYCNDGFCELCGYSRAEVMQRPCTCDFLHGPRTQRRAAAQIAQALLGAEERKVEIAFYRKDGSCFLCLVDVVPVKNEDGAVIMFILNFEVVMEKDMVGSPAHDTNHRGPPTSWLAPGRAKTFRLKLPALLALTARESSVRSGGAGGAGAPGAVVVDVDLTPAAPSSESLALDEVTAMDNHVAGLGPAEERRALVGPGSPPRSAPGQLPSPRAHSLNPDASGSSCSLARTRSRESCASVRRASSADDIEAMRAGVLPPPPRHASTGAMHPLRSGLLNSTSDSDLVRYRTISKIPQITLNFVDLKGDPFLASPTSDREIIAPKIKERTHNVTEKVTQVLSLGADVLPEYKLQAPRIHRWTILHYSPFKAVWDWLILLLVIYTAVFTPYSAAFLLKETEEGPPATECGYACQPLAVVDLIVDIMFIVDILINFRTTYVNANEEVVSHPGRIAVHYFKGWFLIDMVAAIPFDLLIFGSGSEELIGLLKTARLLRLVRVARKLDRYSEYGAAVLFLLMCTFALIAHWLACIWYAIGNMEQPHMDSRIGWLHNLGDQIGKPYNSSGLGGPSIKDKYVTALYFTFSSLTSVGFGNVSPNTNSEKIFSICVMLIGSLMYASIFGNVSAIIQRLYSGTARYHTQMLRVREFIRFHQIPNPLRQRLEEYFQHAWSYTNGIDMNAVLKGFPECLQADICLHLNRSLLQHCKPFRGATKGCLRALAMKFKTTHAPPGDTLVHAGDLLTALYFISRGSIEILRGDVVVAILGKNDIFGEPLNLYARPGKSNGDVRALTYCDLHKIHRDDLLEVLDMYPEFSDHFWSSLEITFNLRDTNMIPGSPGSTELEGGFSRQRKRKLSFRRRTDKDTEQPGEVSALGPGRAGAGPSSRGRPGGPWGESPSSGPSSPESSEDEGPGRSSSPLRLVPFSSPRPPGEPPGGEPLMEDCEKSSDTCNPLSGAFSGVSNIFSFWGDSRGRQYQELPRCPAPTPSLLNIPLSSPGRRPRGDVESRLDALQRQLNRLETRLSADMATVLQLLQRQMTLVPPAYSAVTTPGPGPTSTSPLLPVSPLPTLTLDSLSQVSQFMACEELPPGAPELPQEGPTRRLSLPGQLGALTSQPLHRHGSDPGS
O=C(c1nc2ccccn2c1CN1CCCC(O)C1)N1CCN(C2CCCCC2)CC1 (stereo not shown) was tested, and the “hERG current change (%, negative = inhibition) at 10uM” value was -13%. In the case of COc1ccc(C2CC(=O)c3cnc(NC(=O)c4ccccc4OC)nc3C2)c(OC)c1 (stereo not shown), the “hERG current change (%, negative = inhibition) at 10uM” value is reported as -27.3%. For C/C(=N\NC(=O)c1ccncc1)c1c(O)[nH]c(=O)[nH]c1=O, the “hERG current change (%, negative = inhibition) at 10uM” value was -1.22%. CC(=O)N1c2ccc(S(=O)(=O)NCCC(=O)NCc3ccc(F)cc3)cc2CC1C (stereo not shown) was tested, and the “hERG current change (%, negative = inhibition) at 10uM” value was 14.1%. N#C/C(=C\c1ccc(-c2ccccc2C(=O)O)o1)c1nc2ccccc2[nH]1 was tested, and the “hERG current change (%, negative = inhibition) at 10uM” value was 15.2%. CCCN(C(=O)c1cccs1)c1c(N)n(Cc2ccccc2)c(=O)[nH]c1=O was tested, and the “hERG current change (%, negative = inhibition) at 10uM” value was -8.81%. With N#C/C(=C\c1ccc(OCc2ccc(Cl)cc2)cc1)C(=O)Nc1cccc(C(=O)O)c1 the “hERG current change (%, negative = inhibition) at 10uM” value was 18.8%. CC(C)(C)c1ccc(-c2nc(N)nc(N)n2)cc1 was tested, and the “hERG current change (%, negative = inhibition) at 10uM” value was 17.8%. For CCCCn1c(CN2C(=O)c3ccccc3C2=O)nc2ccccc2c1=O, the “hERG current change (%, negative = inhibition) at 10uM” value was 0.598%. With CN(C(=O)CN1CCN(c2cnn(-c3ccccc3)c(=O)c2Cl)CC1)C1CCS(=O)(=O)C1 (stereo not shown) the “hERG current change (%, negative = inhibition) at 10uM” value was -6.77%. In the case of Cc1noc(C)c1CSCC(=O)OCC(=O)N1CC(=O)Nc2ccccc21, the “hERG current change (%, negative = inhibition) at 10uM” value is reported as -72.4%. CCOc1ccccc1CN1CCN(Cc2cccc3c2OCO3)CC1CCO (stereo not shown) was tested, and the “hERG current change (%, negative = inhibition) at 10uM” value was -62.6%. O=C(Nc1ccc(OCC(=O)N2CCOCC2)cc1)c1cccc(Cl)c1 was tested, and the “hERG current change (%, negative = inhibition) at 10uM” value was -3.45%. In the case of Cc1ccnc(N2C(=O)CSC2c2ccc(Cl)cc2)c1 (stereo not shown), the “hERG current change (%, negative = inhibition) at 10uM” value is reported as -12.3%. For COc1ccc(CCNC(=O)CSc2nc3[nH]ncc3c(=O)n2-c2ccc(Cl)cc2Cl)cc1OC, the “hERG current change (%, negative = inhibition) at 10uM” value was 16.2%. With Cc1cc(C)c(C)c(/C=C(/C#N)C(N)=S)c1C the “hERG current change (%, negative = inhibition) at 10uM” value was -4.15%. In the case of Cc1ccc(S(=O)(=O)Oc2ccccc2/C=C2\SC(=O)NC2=O)cc1, the “hERG current change (%, negative = inhibition) at 10uM” value is reported as 15.8%. COc1ccc(C2C(C(=O)N3CCN(c4ccc(OC)cc4)CC3)c3ccccc3C(=O)N2C)cc1 (stereo not shown) was tested, and the “hERG current change (%, negative = inhibition) at 10uM” value was -23.3%. With CCN(CCCNC(=O)C1CCCN(S(=O)(=O)CC)C1)c1cccc(C)c1 (stereo not shown) the “hERG current change (%, negative = inhibition) at 10uM” value was -11.4%. In the case of CN(C)/C=C1\N=C(c2cccs2)OC1=O, the “hERG current change (%, negative = inhibition) at 10uM” value is reported as 5.45%. With CCOC(=O)c1c(N)sc(C(=O)OCCOC)c1C the “hERG current change (%, negative = inhibition) at 10uM” value was 25.1%. With CCCCN(C)CCCNC(=O)C1CC(=O)N(Cc2ccc(OC)cc2)C1 (stereo not shown) the “hERG current change (%, negative = inhibition) at 10uM” value was -1.67%. In the case of CC(C)(C)c1cc(=O)n2c(C#N)c(C#N)nc2[nH]1, the “hERG current change (%, negative = inhibition) at 10uM” value is reported as 10.8%. With CCOc1ccc(NS(=O)(=O)c2ccc3[nH]c(=O)cc(C(=O)O)c3c2)cc1 the “hERG current change (%, negative = inhibition) at 10uM” value was -2.51%. For CCOC(=O)c1ccc(NC(=O)Cn2nc(C)c3ccccc3c2=O)cc1, the “hERG current change (%, negative = inhibition) at 10uM” value was 15.3%. In the case of COc1cc(SC)ccc1C(=O)N1CCN(Cc2ccccc2)CC1, the “hERG current change (%, negative = inhibition) at 10uM” value is reported as -62.7%. For O=C(NCc1ccccn1)c1n[nH]c2ccccc12, the “hERG current change (%, negative = inhibition) at 10uM” value was 17.9%. In the case of O=C(NCc1ccccc1)C12CN(Cc3ccccc3)CC1C(c1ccc([N+](=O)[O-])cc1)=NO2 (stereo not shown), the “hERG current change (%, negative = inhibition) at 10uM” value is reported as -67.1%. COc1cccc(NC(=O)CN2C(=O)CSc3ccc(S(=O)(=O)N4CCC(C)CC4)cc32)c1 was tested, and the “hERG current change (%, negative = inhibition) at 10uM” value was 17%. With O=C(CS(=O)(=O)c1cn(CC(=O)N2CCCC2)c2ccccc12)Nc1ccccc1 the “hERG current change (%, negative = inhibition) at 10uM” value was 3.65%. With O=C(Nc1nc(-c2ccccc2)cs1)c1ccccc1NS(=O)(=O)c1ccc(F)cc1 the “hERG current change (%, negative = inhibition) at 10uM” value was 10%. With CSc1cccc(NS(=O)(=O)c2ccc(C(C)=O)cc2)c1 the “hERG current change (%, negative = inhibition) at 10uM” value was -27.2%. For COc1cc(Br)cc(CN2CCN(C)CC2)c1O, the “hERG current change (%, negative = inhibition) at 10uM” value was -19.9%. With COc1cc(NC(=O)CCC(=O)OCCCC(F)(F)C(F)(F)F)nc(OC)n1 the “hERG current change (%, negative = inhibition) at 10uM” value was 4.37%. CCN(C(=O)CN1C(=S)NC(C)(C)CC1C)c1ccc(C)c(C)c1 (stereo not shown) was tested, and the “hERG current change (%, negative = inhibition) at 10uM” value was 18%. COC(=O)c1ccc(Cn2cnc3ccccc3c2=O)cc1 was tested, and the “hERG current change (%, negative = inhibition) at 10uM” value was -38.6%. For COc1ccc(CC(=O)Nc2nnc(C(C)(C)C)s2)cc1OC, the “hERG current change (%, negative = inhibition) at 10uM” value was 2.11%. In the case of Cc1nn(CC(=O)NCc2cccc(F)c2)c(=O)c2cccn12, the “hERG current change (%, negative = inhibition) at 10uM” value is reported as 8.99%. For O=C(Nc1nc(-c2ccccn2)cs1)C1CC(=O)N(c2ccc3c(c2)OCCO3)C1 (stereo not shown), the “hERG current change (%, negative = inhibition) at 10uM” value was -8.37%. For COc1cccc(CCNCc2cccc(C(F)(F)F)c2)c1.O=C(O)C(=O)O, the “hERG current change (%, negative = inhibition) at 10uM” value was -3.46%. In the case of Cc1c(NC(=O)CSc2ncccn2)c(=O)n(-c2ccccc2)n1C, the “hERG current change (%, negative = inhibition) at 10uM” value is reported as 27.8%. For COc1cccc(NC(=O)N2CCCCCC2)c1, the “hERG current change (%, negative = inhibition) at 10uM” value was 16%. In the case of CN(C)S(=O)(=O)c1ccc(NS(=O)(=O)/C=C/c2ccccc2)cc1, the “hERG current change (%, negative = inhibition) at 10uM” value is reported as -9.17%. CCOc1cccc(=O)c2c(C)n(C)c(C)c12 was tested, and the “hERG current change (%, negative = inhibition) at 10uM” value was -4.1%. With COc1ccc(COc2ccc(C3C(S(=O)(=O)c4ccccc4)CON3C)cc2OC)cc1 (stereo not shown) the “hERG current change (%, negative = inhibition) at 10uM” value was -2.6%. For CCOCC(=O)Nc1cc(C(=O)OC)ccc1C(=O)OC, the “hERG current change (%, negative = inhibition) at 10uM” value was -2.43%. For CCCCC(=O)Nc1ccc(N2CCN(C(=O)c3ccco3)CC2)cc1, the “hERG current change (%, negative = inhibition) at 10uM” value was -18.1%. With O=C(O)CSc1nnc(Cn2nnc3ccccc32)n1CCc1ccccc1 the “hERG current change (%, negative = inhibition) at 10uM” value was 16.9%. For O=C/C(=C\Nc1ccc(Cl)cn1)c1nc2cc(Cl)ccc2o1, the “hERG current change (%, negative = inhibition) at 10uM” value was 16%. CCn1c(SCc2ccc(C)cc2)nnc1-c1cnccn1 was tested, and the “hERG current change (%, negative = inhibition) at 10uM” value was -18.8%. With CC1CCCC(C)N1C(=O)CN1C(=O)C(C)(C)Oc2ccc(C(=O)NC3CCCC3)cc21 (stereo not shown) the “hERG current change (%, negative = inhibition) at 10uM” value was -36.1%. With COCCN(C(=O)COC(=O)CCC(=O)c1cccs1)c1c(N)n(Cc2ccccc2)c(=O)[nH]c1=O the “hERG current change (%, negative = inhibition) at 10uM” value was 15.4%. For OC(CNCc1ccccc1F)(c1ccc(F)cc1)c1ccc(F)cc1, the “hERG current change (%, negative = inhibition) at 10uM” value was -26.7%. With CCOC(=O)c1c(C)n(CC)c2ccc(OC(=O)c3ccc([N+](=O)[O-])cc3)cc12 the “hERG current change (%, negative = inhibition) at 10uM” value was 6.3%. For Cc1cccc(N(CC(=O)N2CCCC2)S(=O)(=O)c2ccccc2)c1C, the “hERG current change (%, negative = inhibition) at 10uM” value was -11.9%.
